PubChem BioAssay AID1345083 (National Center for Advancing Translational Sciences (NCATS), 2018)
The whole screen tested about 94,000 compounds, of which about 6,200 (6.6%) were called active. Inconclusive means that the source gave no clear call. Such entries were picked first, then a sample of the others. The call rests on the fitted dose curve; in most records, active means well fitted inhibition curve with a large enough effect; inconclusive means small, poorly fitted or top-dose-only effect; inactive means flat fitted curve, though single readings scatter. Potencies of inconclusive entries are doubtful fits and often do not repeat.

Test: Cytotoxic Profiling in HEK 293 Cell Line of Diverse Libraries Using Quantitative High-Throughput Screening; further: nearly all actives have a fitted effect of over 60% in size
Conditions: HEK 293 viability, ATP luminescence (CellTiter-Glo), 48-72 h; series mostly up to 115 µM
Summary of the method: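 Luminescence from cellular ATP, measured with CellTiter-Glo, indicates HEK 293 viability. Cells plated at 250 cells/well are treated with compound for 48 or 72 hr at 37 degree Celsius before reagent addition.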
Potency means the concentration at half of the fitted maximal effect; tags describe the fitted curve by direction and shape.

SMILES	Potency
Cc1ccc(Cn2c(-c3ccc(F)cc3)nc(C)c(CCO)c2=O)cc1	inconclusive: 50.1 µM [inhibitor, partial curve, poor fit]
Cc1cccc(C)c1NC(=O)CN1C(=O)NC2(CCC(C)CC2)C1=O (stereo not given)	inactive
CCn1nc(C)c(-c2cc(C(=O)N3CCC(CCOc4ccccc4)C3)no2)c1C (stereo not given)	active: 25.1 µM
Cc1cc(=O)n(CC(=O)Nc2ccc(C)c(Cl)c2)c(N2CCC(C)CC2)n1	active: 31.6 µM
CC(C)(O)C#Cc1ccc(CN2CCC(CO)(CCCc3ccccc3)CC2)s1	inconclusive: 15.8 µM [inhibitor, full curve, poor fit]
CCn1cc(CN2CCC3(CC2)CC(c2ccccc2)CN3C)cn1 (stereo not given)	inactive
C[C@@]1(O)CCN(CC2CCCCC2)C[C@H]1N1CCCC1	inconclusive: 79.4 µM [inhibitor, single point]
CC(C)c1nc(-c2ccc(OC3CCN(C(=O)Cc4ccccc4F)C3)cc2)no1 (stereo not given)	active: 35.5 µM
O=C(NCc1cc(F)cc(F)c1)[C@H]1CN(Cc2ccccc2)C[C@H]1C(=O)O	inconclusive: 56.2 µM [inhibitor, partial curve, poor fit]
O=C(CN1C(=O)NC(c2ccccc2Cl)C2=C1COC2=O)NCc1ccc(F)cc1 (stereo not given)	inconclusive: 70.8 µM [inhibitor, partial curve, poor fit]
CCC(C)NC(=O)C1CCCN1c1nccc(Nc2ccccc2F)n1 (stereo not given)	inconclusive: 44.7 µM [inhibitor, partial curve]
COc1cccc(CC(=O)N2CCN(c3cc(-c4ccc(Cl)cc4)[nH]n3)CC2)c1	inconclusive: 17.8 µM [inhibitor, full curve, poor fit]
COCc1cc(C[C@@H]2C[C@H](NC(=O)COc3ccccc3)C2(C)C)no1	inconclusive: 89.1 µM [inhibitor, partial curve]
Cc1nc(-c2cccc(Cl)c2)n(CC(=O)NC(C)CCc2ccccc2)c(=O)c1CCO (stereo not given)	inconclusive: 44.7 µM [inhibitor, partial curve, poor fit]
Cc1ccccc1N1Cc2c(NCC3CCCCCC3)ncnc2N(C)CC1=O	inconclusive: 44.7 µM [inhibitor, partial curve, poor fit]
Cc1noc(C)c1-c1cc2c(cc(-c3ccccc3)n2C)c(N(C)C)n1	inconclusive: 17.8 µM [inhibitor, full curve, poor fit]
COc1ccccc1C(=O)NC1CCN(c2cc(-c3ccc(F)cc3)[nH]n2)C1 (stereo not given)	inconclusive: 50.1 µM [inhibitor, partial curve, poor fit]
Cc1nnc2ccc(N3CCCN(C(=O)c4ccccc4Cl)CC3)nn12	inactive
O=C(NCCc1ccc(Cl)cc1)C1CCCN1C(=O)c1cccc(-c2cccnc2)c1 (stereo not given)	inconclusive: 56.2 µM [inhibitor, partial curve, poor fit]
CCOc1ccccc1CN1CCC2(Cc3ccccc3CNC2=O)C1 (stereo not given)	inconclusive: 89.1 µM [inhibitor, partial curve]

SMILES	Potency
CN(Cc1ccc(Oc2ncccn2)cc1)CC1CCN(CCc2ccc(F)cc2)CC1	inconclusive: 50.1 µM [inhibitor, partial curve, poor fit]
Cc1ccccc1NC(=O)COc1ccc(-c2nnc3n2CCCC3)cc1	inactive
CSc1ccc(-c2cccc(CN3CCC(N[S+](=O)([O-])c4cccs4)CC3)c2)cc1	active: 22.4 µM
O=C(C1CCN(c2nc(-c3ccccc3)nc3c2CCC3)CC1)N1CCNCC1	inconclusive: 50.1 µM [inhibitor, partial curve, poor fit]
CN(C)c1cccc(C(=O)N2CCC3(CC2)N=C(c2cccc(Br)c2)NO3)c1	inconclusive: 89.1 µM [inhibitor, single point]
O=C(CNC(=O)c1cccc(-c2ccsc2)c1)NC1CCC1	inconclusive: 89.1 µM [inhibitor, partial curve]
CN1CCC(Cn2ccc3c(N4CCOCC4)nc(-c4cccc5[nH]ncc45)cc32)CC1	inconclusive: 70.8 µM [inhibitor, partial curve, poor fit]
Cc1ccc(Cn2cc(-c3ccncc3)cc2C(=O)NC2CC2)cc1	inconclusive: 50.1 µM [inhibitor, full curve, poor fit]
O=C1c2c(nc(COc3ccccc3)n2Cc2ccccc2)NCCN1Cc1ccccc1F	inconclusive: 15.8 µM [inhibitor, full curve, poor fit]
Cc1noc(CC2CCOC3(CCN(Cc4ccc(F)cc4F)CC3)C2)n1 (stereo not given)	inconclusive: 79.4 µM [inhibitor, partial curve, poor fit]
CNC(=O)[C@@H](CC(C)C)N1CCC[C@H]1C(=O)N1CCN(C)CC1	inactive
Cc1cc2c(c(=O)n(-c3ccc(F)cc3)c(=O)n2CC(=O)Nc2ccc3c(c2)OCO3)n1C	inconclusive: 50.1 µM [inhibitor, partial curve, poor fit]
Cc1noc(C)c1-c1cc(-c2ccccc2Oc2ccccc2)cn2cncc12	active: 79.4 µM
Cc1c(F)cccc1NC(=O)N1CCCC(Cn2cnc3cccnc32)C1 (stereo not given)	inconclusive: 31.6 µM [inhibitor, partial curve, poor fit]
CC(C)(C)c1cc(CC2(NCc3ccc(C#N)cc3)COC2)no1	inactive
COc1ccc(NC(=O)c2cn3cc(-c4ccccc4)sc3n2)cc1	inconclusive: 44.7 µM [inhibitor, partial curve, poor fit]
O=C(NCC1CC1)C1CCCN1c1nccc(Nc2ccccc2F)n1 (stereo not given)	inconclusive: 100 µM [inhibitor, partial curve, poor fit]
Cn1ncc2c(C(=O)Nc3ccc(F)cc3)cc(-c3ccc(Cl)cc3Cl)nc21	inactive
CC1=C[C@@H](CN2CCN(C)CC2)[C@H](C(C)C)C[C@H]1Cc1nnc(-c2ccc(N(C)C)cc2)o1	active: 22.4 µM
CC(C)NC(=O)c1nc(-c2ccc(F)cc2)c2ccccn12	inconclusive: 100 µM [inhibitor, partial curve]
